Test results reported in US20100015650.

Biological target: T1, BRB1 tyrosine kinase substrate peptide
T1 chain: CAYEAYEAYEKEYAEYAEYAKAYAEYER

B1: ABL (protein)
chain: LEICLKLVGCKSKKGLSSSSSCYLEEALQRPVASDFEPQGLSEAARWNSKENLLAGPSE[about 60 residues not listed]LEKHSWYHGPVSRNAAEYLLSSGINGSFLVRESESSPGQRSISLRYEGRVYHYRINTASDGKLYVSSESRFNTLAELVHHHSTVADGLITTLHYPAPKRNKPTVYGVSPNYDKWEMERTDITMKHKLGGGQYGEVYEGVWKKYSLTVAVKTLKEDTMEVEEFLKEAAVMKEIKHPNLVQLLGVCTREPPFYIITEFMTYGNLLDYLRECNRQEVNAVVLLYMATQISSAMEYLEKKNFIHRDLAARNCLVGENHLVKVADFGLSRLMTGDTYTAHAGAKFPIKWTAPESLAYNKFSIKSDVWAFGVLLWEIATYGMSPYPGIDLSQVYELLEKDYRMERPEGCPEKVYELMRACWQWNPSDRPSFAEIHQAFETMFQESSISDEVEKELGKQGVRGAVSTLLQAPELPTKTRTSRRAAEHRDTTDVPEMPHSKGQGESDPLDHEPAVSPLLPRKERGPPEGGLNEDERLLPKDKKTNLFSALIKKKKKTAPTPPKRSSSFREMDGQPERRGAGEEEGRDISNGALAFTPLDTADPAKSPKPSNGAGVPNGALRESGGSGFRSPHLWKKSSTLTSSRLATGEEEGGGSSSKRFLRSCSASCVPHGAKDTEWRSVTLPRDLQSTGRQFDSSTFGGHKSEKPALPRKRAGENRSDQVTRGTVTPPPRLVKKNEEAADEVFKDIMESSPGSSPPNLTPKPLRRQVTVAPASGLPHKEEAGKGSALGTPAAAEPVTPTSKAGSGAPGGTSKGPAEESRVRRHKHSSESPGRDKGKLSRLKPAPPPPPAASAGKAGGKPSQSPSQEAAGEAVLGAKTKATSLVDAVNSDAAKPSQPGEGLKKPVLPATPKPQSAKPSGTPISPAPVPSTLPSASSALAGDQPSSTAFIPLISTRVSLRKTRQPPERIASGAITKGVVLDSTEALCLAISRNSEQMASHSAVLEAGKNLYTFCVSYVDSIQQMRNKFAFREAINKLENNLRELQICPATAGSGPAATQDFSKLLSSVKEISDIVQR
Signal to Noise ratio with BRB1 Peptide (TR-FRET kinase assay; kinase 0.25 nM): 4.1

B2: ABL [T315I] (ABL1) (protein)
chain: LEICLKLVGCKSKKGLSSSSSCYLEEALQRPVASDFEPQGLSEAARWNSKENLLAGPSE[about 60 residues not listed]LEKHSWYHGPVSRNAAEYLLSSGINGSFLVRESESSPGQRSISLRYEGRVYHYRINTASDGKLYVSSESRFNTLAELVHHHSTVADGLITTLHYPAPKRNKPTVYGVSPNYDKWEMERTDITMKHKLGGGQYGEVYEGVWKKYSLTVAVKTLKEDTMEVEEFLKEAAVMKEIKHPNLVQLLGVCTREPPFYIIIEFMTYGNLLDYLRECNRQEVNAVVLLYMATQISSAMEYLEKKNFIHRDLAARNCLVGENHLVKVADFGLSRLMTGDTYTAHAGAKFPIKWTAPESLAYNKFSIKSDVWAFGVLLWEIATYGMSPYPGIDLSQVYELLEKDYRMERPEGCPEKVYELMRACWQWNPSDRPSFAEIHQAFETMFQESSISDEVEKELGKQGVRGAVSTLLQAPELPTKTRTSRRAAEHRDTTDVPEMPHSKGQGESDPLDHEPAVSPLLPRKERGPPEGGLNEDERLLPKDKKTNLFSALIKKKKKTAPTPPKRSSSFREMDGQPERRGAGEEEGRDISNGALAFTPLDTADPAKSPKPSNGAGVPNGALRESGGSGFRSPHLWKKSSTLTSSRLATGEEEGGGSSSKRFLRSCSASCVPHGAKDTEWRSVTLPRDLQSTGRQFDSSTFGGHKSEKPALPRKRAGENRSDQVTRGTVTPPPRLVKKNEEAADEVFKDIMESSPGSSPPNLTPKPLRRQVTVAPASGLPHKEEAGKGSALGTPAAAEPVTPTSKAGSGAPGGTSKGPAEESRVRRHKHSSESPGRDKGKLSRLKPAPPPPPAASAGKAGGKPSQSPSQEAAGEAVLGAKTKATSLVDAVNSDAAKPSQPGEGLKKPVLPATPKPQSAKPSGTPISPAPVPSTLPSASSALAGDQPSSTAFIPLISTRVSLRKTRQPPERIASGAITKGVVLDSTEALCLAISRNSEQMASHSAVLEAGKNLYTFCVSYVDSIQQMRNKFAFREAINKLENNLRELQICPATAGSGPAATQDFSKLLSSVKEISDIVQR
Signal to Noise ratio with BRB1 Peptide (TR-FRET kinase assay; kinase 0.5 nM): 4.8
